Assay results as given in paper PMC4336329 (PLoS ONE, 2015).
The campaign covered roughly 310,000 compounds. About 2,200 (0.71%) showed an effect of 50% or more. The effect is printed as a negative number. The list shows a part of the results.

Biological target: human ether-à-go-go-related gene (hERG) potassium channel (human, UniProt Q12809)
Test: primary screen, population patch clamp on CHO cells stably expressing hERG

Sequence of human ether-à-go-go-related gene (hERG) potassium channel (Q12809 whole entry, looked up): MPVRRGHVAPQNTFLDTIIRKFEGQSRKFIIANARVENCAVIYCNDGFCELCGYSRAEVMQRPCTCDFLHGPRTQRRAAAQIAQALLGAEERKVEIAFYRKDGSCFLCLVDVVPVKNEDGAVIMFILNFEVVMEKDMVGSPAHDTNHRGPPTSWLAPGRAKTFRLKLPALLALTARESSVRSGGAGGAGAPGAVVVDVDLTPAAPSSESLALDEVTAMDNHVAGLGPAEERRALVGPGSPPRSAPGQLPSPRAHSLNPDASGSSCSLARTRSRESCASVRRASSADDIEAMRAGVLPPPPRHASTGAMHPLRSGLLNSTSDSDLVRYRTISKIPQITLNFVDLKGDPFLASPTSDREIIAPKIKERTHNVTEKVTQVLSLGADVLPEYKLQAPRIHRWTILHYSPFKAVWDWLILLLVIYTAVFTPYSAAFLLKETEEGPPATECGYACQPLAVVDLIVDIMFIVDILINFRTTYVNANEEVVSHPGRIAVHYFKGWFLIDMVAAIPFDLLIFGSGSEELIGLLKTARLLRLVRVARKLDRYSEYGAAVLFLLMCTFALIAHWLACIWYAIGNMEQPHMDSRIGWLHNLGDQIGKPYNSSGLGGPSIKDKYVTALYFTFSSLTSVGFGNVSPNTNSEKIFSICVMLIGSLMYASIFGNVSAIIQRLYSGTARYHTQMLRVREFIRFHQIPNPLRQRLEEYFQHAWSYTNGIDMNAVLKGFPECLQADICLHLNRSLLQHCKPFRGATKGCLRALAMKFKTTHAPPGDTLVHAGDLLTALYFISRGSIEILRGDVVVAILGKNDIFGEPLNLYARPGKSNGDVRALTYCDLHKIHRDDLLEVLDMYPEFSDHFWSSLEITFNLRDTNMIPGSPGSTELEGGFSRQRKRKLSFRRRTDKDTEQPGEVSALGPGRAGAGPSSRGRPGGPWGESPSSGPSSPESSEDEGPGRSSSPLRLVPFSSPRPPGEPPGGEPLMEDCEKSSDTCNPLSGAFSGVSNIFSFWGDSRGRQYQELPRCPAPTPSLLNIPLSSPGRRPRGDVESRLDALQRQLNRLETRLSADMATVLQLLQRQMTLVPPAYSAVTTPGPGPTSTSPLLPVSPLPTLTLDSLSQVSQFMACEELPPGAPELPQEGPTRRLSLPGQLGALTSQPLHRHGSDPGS

Row | SMILES | hERG current change (%, negative = inhibition) at 1uM [%]
1 | Cc1cc(N2CCOCC2)c2c(N)cc(C)c(C)c2n1 | -11.5
2 | OCC[C@@H]1C[C@H](O)[C@@H](O)[C@@]2(Cc3ccccc3CCO2)O1 | 9.03
3 | CC(=Nc1ccccc1)c1sc2ccccc2c1O | 8.35
4 | CSc1ccc(C(=O)c2[nH]c(=O)[nH]c2C)cc1 | 7.87
5 | COc1ccccc1OCC(=O)Nc1cc(C)ccc1NC(=O)c1ccco1 | 9.76
6 | CN1CCN(C(=O)Cn2c(=O)oc3cc(S(=O)(=O)NCc4ccccc4)ccc32)CC1 | 8.23
7 | Cc1c(C(=O)Nc2ccc(Nc3ccccc3)cc2)cccc1[N+](=O)[O-] | 11.8
8 | CCn1c(=O)[nH]c2ccccc2c1=O | 21
9 | CCC(CC)COC(=O)C1=C(C)NC(=O)NC1c1ccc2c(c1)OCO2 (stereo not drawn) | 5.82
10 | COc1ccccc1OCC(=O)NCC(c1cccs1)N1CCOCC1 (stereo not drawn) | 2.95
11 | CCOc1ccc(S(=O)(=O)Nc2ccncc2)c(C)c1C | 6.12
12 | O=C(COC(=O)CNC(=O)c1ccc(Cl)cc1Cl)NCC1CCCO1 (stereo not drawn) | 7.97
13 | CCOC(=O)c1cnc2c(cnn2C)c1NCCC#N | -0.612
14 | CCOC(=O)N1CCC(N2CCCC(C(=O)c3cc(F)ccc3OC)C2)CC1 (stereo not drawn) | -52.2
15 | CCC(OC(=O)C1=Cc2ccccc2OC1)C(=O)NCc1ccco1 (stereo not drawn) | 15.1
16 | COc1ccc(-c2oc(NC(=O)CSc3ncn[nH]3)c(C#N)c2-c2ccc(OC)cc2)cc1 | 20.9
17 | CCn1c(COc2cccc(OC)c2)nnc1SCC(=O)NCC1CCCO1 (stereo not drawn) | 13.1
18 | O=C(O)c1ccccc1C(=O)NCc1c(Cl)cccc1Sc1ccc(Cl)cc1 | 12.9
19 | O=C(NCc1ccccc1CN1CCCCC1)c1ccc(Cl)cc1N1CCCC1=O | 1.43
20 | Cc1ccc2nc(SCC(=O)Nc3ccccc3N3CCOCC3)c(C#N)cc2c1 | 3.99
21 | COc1ccc(OC)c(C(=O)CSc2nnnn2C)c1 | 2.45
22 | Clc1ccccc1OCc1nnc2n1CCCCC2 | -2.53
23 | S=c1[nH]nc(C2CCCCC2)n1/N=C/C(Cl)=C\c1ccccc1 | 6.87

Row | SMILES | hERG current change (%, negative = inhibition) at 1uM [%]
24 | CNC(=O)c1[nH]cnc1C(=O)N[C@@H](Cc1ccccc1)C(=O)OC(C)(C)C | 7.83
25 | O=C(NCc1ccco1)C1CCCN1C(=O)Nc1ccc(Cl)cc1 (stereo not drawn) | 14.7
26 | COc1ccc2c(c1)SCC(=O)N2C | -1.11
27 | CN(C)CCn1c2c(c(SCC(=O)Nc3ccccc3)nc1=O)CCCC2 | -0.74
28 | Cc1ccc(/C=C2\C(=O)NC(=O)N(CC3CCCO3)C2=O)s1 (stereo not drawn) | 9.43
29 | COc1ccccc1NC(=O)CCN1CC(C)OC(C)C1.Cl (stereo not drawn) | 14.8
30 | CCc1cc(=O)[nH]c(SCC(=O)NCC2CCCO2)n1 (stereo not drawn) | 6.78
31 | COc1ccc(-n2nc(C(=O)NCC(=O)Nc3cc(OC)c(OC)c(OC)c3)c3ccccc3c2=O)cc1OC | 13.2
32 | Cc1ccccc1C(=O)NCC(=O)NNC(=O)CCN1CCN(c2ccccc2)CC1 | 16.4
33 | COc1ccccc1N1CCN(CC(=O)Nc2ccc3c(c2)OCCO3)CC1 | -0.304
34 | CC(=O)c1cccc(OCC(=O)Nc2ccccc2N2CCOCC2)c1 | 1.46
35 | CCN(CC)C(=O)c1ccccc1NC(=O)CN1C(=O)c2ccccc2C1=O | 9.88
36 | Cc1cc(C)nc(SCC(=O)N(C)CC(=O)Nc2c(Cl)cccc2Cl)n1 | 7.52
37 | O=C(c1cc(-c2ccc(O)cc2)on1)N1CCN(c2ccccc2)CC1 | 15
38 | COc1ccc(C2/C=C\CN(Cc3ccc(N(C)C)cc3)CC(=O)N2Cc2ccc(F)cc2)cc1 (stereo not drawn) | 5.68
39 | CN1CCN(Cc2ccc(-c3ccc(Cl)cc3)o2)CC1 | -0.985
40 | COc1ccccc1C(=O)NNC1=C(C(=O)C(F)(F)F)CCC1 | 4.92
41 | Cc1ccc(S(C)=O)cc1-n1c(=O)n(Cc2ccccc2)c(=O)c2[nH]cnc21 (stereo not drawn) | 16.4
42 | C=CC[C@H]1CC(C)=C[C@H](CC=C)[NH2+]1.[Cl-] | 12.3
43 | CC(=O)Nc1ccc(OC(=O)c2c(-c3ccccc3Cl)noc2C)cc1 | 7.45
44 | CC1CCCCN1CCNC(=O)c1cc2c(-c3ccccc3F)nn(C)c2s1 (stereo not drawn) | -24
45 | COCCNc1nc(-c2ccccc2)nc2ccccc12.Cl | 11.2
